Molecular target: T1, human SIRPα-ECD-Avi-His (human, UniProt P78324 31-352)
T1 construct: UniProt P78324-2; also called recombinant human SIRPα protein; human SIRPa
Assay: BLI (Octet), biotinylated human CD47-avi-his on streptavidin sensor, SIRPα at 2 µM, no Fab

binding result: binds
B1: human CD47-ECD-Avi-His (receptor)
chain: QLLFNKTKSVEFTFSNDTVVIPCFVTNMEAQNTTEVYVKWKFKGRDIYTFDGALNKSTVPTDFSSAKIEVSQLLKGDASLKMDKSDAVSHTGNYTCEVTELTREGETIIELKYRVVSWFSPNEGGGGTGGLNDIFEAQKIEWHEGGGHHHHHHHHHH
notes: also called recombinant human CD47-avi-his protein; recombinant human CD47 protein
